Laboratory results: paper PMC7448383 (Cell, 2020)

Target: the molecule itself
Experiment: cross-linking

B1: G3BP1 S149A, purified recombinant (natural protein)
chain: not shown
- binding result: binds

B2: G3BP1 S149E, purified recombinant (natural protein)
chain: not shown
- binding result: binds
